Experimental data published in the RNAGym collection of RNA variant scans (doi:10.7554/elife.90254).
The source gives no read counts; variants with many changes may rest on few reads.

B1: LINE1-mini (parent)
chain: GGCAGAGCUCAACACAGCGUGGCAAAGUGGCUGUGGCUAGACUGCC

Variants of: B1
Test: self-cleavage, relative activity (ratio to wild type); higher = more cleavage; in vitro, sequencing; the parent is a self-cleaving ribozyme

Row | Variant | self-cleavage
1 | GGUAUAGCUCAACACAGCGUGGCAAAGUGGCUGUGGCUAGUCUGCC [C3U G5U A41U] | 0.45
2 | GGCAGAGCUGAGCACAGCGUGGCAAGGUGUCUGAGGUUAGACUGCC [C10G A12G A26G G30U U34A C37U] | 0.01
3 | GGCAGAGCUGAACACAGCGUUGCAAAGUGGCUGUGGCUAGACGGCC [C10G G21U U43G] | 0.01
4 | GGCAGAGCUCAACACAGCGUAGCAAAUUGGCUUUGGCUAGACUGCC [G21A G27U G33U] | 0.6
5 | GGCAGAGCUCAACACAGCGCGGCAGUGUGGCUGUAGCUAGACUGCC [U20C A25G A26U G35A] | 0.03
6 | GGCGGAGCUCACCACAGCGUGGCAAAGUGGCUGUGGCUAGACUGCA [A4G A12C C46A] | 0.01
7 | GGGAGCGCUCAACACAGCGUGGCAAAGUGGCUGUGGCUAUACUGCC [C3G A6C G40U] | 0.1
8 | GGCAGAGCUGAAGACAGCGCAGCAAAGUGGCCGUGGCUAGUCUGCC [C10G C13G U20C G21A U32C A41U] | 0.02
9 | GGCAGAGCUAAACACAGCGUGGCAAAGUAGCUGUGACUAGAAUUCC [C10A G29A G36A C42A G44U] | 0.01
10 | GGCAGGGCACAACACACCGAGUCAAAGUGGCUGUGGCUAGACUUCC [A6G U9A G17C U20A G22U G44U] | 0
11 | GGCAGAGCUUAACAUAGCGGGGCAAAGUGGCUGUGGGUAGACUGCC [C10U C15U U20G C37G] | 0.04
12 | GGCAGAGGUCAACACAGCGUGGCAAAGUGGCUGUGGGUAGACUGAC [C8G C37G C45A] | 0.01
13 | GGCUGAGCUCAACACAGCUUGGCCAUGUGGCUGUGGCUAGACUGCC [A4U G19U A24C A26U] | 0.02
14 | GGCAGAUCUCAACACAGCGUGGCAAAGUGUUUGUGGCUAGACUGUC [G7U G30U C31U C45U] | 0.04
15 | GGCAGGGCUCAACACAGCGUGGCAAAGUGGCUCUGGAUAGACUGCC [A6G G33C C37A] | 0.05
16 | GGCAGAGCUCAACAGAGUGUGGCAGAGUGGCUGGGCCUAGACUGCA [C15G C18U A25G U34G G36C C46A] | 0
17 | GGCAGGGCUCAACACAGCCUGGCAAAAUUGCUGUGACUAGACUGCC [A6G G19C G27A G29U G36A] | 0.27
18 | GGCACAGCUCUUCGCAGCGAGGCAAAGUGGCUGUGGCUGGACUGCC [G5C A11U A12U A14G U20A A39G] | 0.02
19 | GGCAGAGCGCAAGACAGCGUUGCAAAGUGGCUGUGGGUAGACUGCC [U9G C13G G21U C37G] | 0.07

Row | Variant | self-cleavage
20 | GGAAGAGCUCAACACAGCGUGGCAAAAUGUCUGUGACUAGACUACC [C3A G27A G30U G36A G44A] | 0.33
21 | GGCAGAGCUCAACACAGCGUGGAAAAGUGGCUUUGUCUAGACUGCC [C23A G33U G36U] | 0.04
22 | GGCAGAACUCAUCACAGCGUGGCAAAGUUGCUGUGGCUACACUGCC [G7A A12U G29U G40C] | 0.28
23 | GGCAAAGCUAAGCACAGCGUGGCAAAGUGGCUGUGGCUAGACUGCC [G5A C10A A12G] | 0
24 | GGCAUAGCUCAACACAGCGUGGUAAAGUGGCUGUGGCUACAAUGCC [G5U C23U G40C C42A] | 0.03
25 | GGUGCAUCUCAACACAGCGUGUCAACGUGGCUGUGGCUAGACUGCC [C3U A4G G5C G7U G22U A26C] | 0.36
26 | GGCAUAGCUCAACACUGCGUGGCAAAGUGGCUGUGUCUAGACUGCC [G5U A16U G36U] | 0.03
27 | GGUGGAGUUCGAUACAGCGUGGCAAAGUGGCUGUGGCUAGACUGCC [C3U A4G C8U A11G C13U] | 0.01
28 | GGCAUAGCUCAACACACCGUGGCAAAGUGGCUGUUGCUAGACUGCC [G5U G17C G35U] | 0.02
29 | GGCAGAACUCAAUACAGCGUGGCAAAAUGGCUGUGGCUAGACUGCC [G7A C13U G27A] | 0.23
30 | GGCAGAGCUCAAUACAGCGUGGCAAAGUGGAUGUGGCUAGAUUGCC [C13U C31A C42U] | 0
31 | GGUAGAGCUCAACACAACGUGGCAGAGUGGCUGUGGCUAGACUGUC [C3U G17A A25G C45U] | 0.03
32 | GGCGGAGCUCAACCCAGCGUGGCAAAGUGGCGGUGGCUAGACUGCC [A4G A14C U32G] | 0.15
33 | GGCAGAGCUCAACACAUCGUGGCGAAGUGGCUGUGCCUGGACUGCC [G17U A24G G36C A39G] | 0.07
34 | GGCAUAGUUCAACACAGCGUGGCAAAGUGGCUUUGGCUCGACUGCC [G5U C8U G33U A39C] | 0.06
35 | AGCAGAGCUCAUCACAGCGUGGCAAAGUGGCUGUGACUAGACUGCC [G1A A12U G36A] | 0.02
36 | GGCAGGGCUUAACACGGUGUGGCAAAGUGGCUGUGGGUAGACUGCC [A6G C10U A16G C18U C37G] | 0.02
37 | GGCAGAGCUCAACACAACGCGGCAAAGUGGCUGUGGAUAGAAUGCC [G17A U20C C37A C42A] | 0
38 | GACAGAGCUCAAUACAGCGUGGCAAAGUGCCUGUGGCUAGACUACC [G2A C13U G30C G44A] | 0.1

Row | Variant | self-cleavage
39 | GGCAGAGCUUAACAAAAGCUGGCAAAGUGGCUGUGGCUAGAGGGCC [C10U C15A G17A C18G G19C C42G U43G] | 0.01
40 | GGCCGAGCUCAACACAGCGUGGCACAGUGGCUGUGGCUAGUCUGCC [A4C A25C A41U] | 0.04
41 | GGCAGAGCUCAGCACAGCGUGGCAAAGUGACUGUGACUAGACUGCC [A12G G30A G36A] | 0.03
42 | GGCAGUGCUCAACACAGCGUGGCAAAGUGGCUGUGGCUUGACAGCC [A6U A39U U43A] | 0
43 | GGCAGAGCUUAACGCAGCGUGGCAAAGUGGCUGUGGCUAGAGUGCC [C10U A14G C42G] | 0
44 | GGGAGAGCUCAACACAGCGUGGCAAAGUUACUGUGGCUAGACUGCC [C3G G29U G30A] | 0.15
45 | GGCAGUGCUCAACACAGCGUGGCAAAGUGGCUUUGGCCAGAUUACG [A6U G33U U38C C42U G44A C46G] | 0.05
46 | GGCAGAGCUCAACACAGCGUGGCUAAUAAGCUGUGGCUAGACUGCC [A24U G27U U28A G29A] | 2.23
47 | GGCAGAGCUCAACACAGCGUGGCAAUGUGGAUGUGGCUAGAGUGCC [A26U C31A C42G] | 0.05
48 | GACAGAGCUCAACACAGCGUGGUAACGUGGCUGUGGCUAAACUGCG [G2A C23U A26C G40A C46G] | 0.21
49 | UGCAGAGCUCAACACAGCGUGGCAAAGUCGGUGUGGCUAGACUGCC [G1U G29C C31G] | 0.12
50 | GGCUGUGCUCAACAGAGCGUGGCAAAGUGGGUGUCGAUAGACGGCC [A4U A6U C15G C31G G35C C37A U43G] | 0
51 | GGCAGAGCUCAACGCAGCCUGGCAAAAUGGCUGUGGUUAGACUGCC [A14G G19C G27A C37U] | 0.01
52 | GGCAGAGCUCAACAGAUCGCGGCAAAGUGGCUGUGGCUAGACUGCC [C15G G17U U20C] | 0.01
53 | GGCAGAGCUCAACACAGCGUGGUAAAGUGGCUGAGUCUAGACUGCC [C23U U34A G36U] | 0.04
54 | CGCAGAGCUCAACACAGCGUGGCAAAGCGGCUGUGUCUAGACUGCC [G1C U28C G36U] | 0.06
55 | GGCAGAGCUCAGCACAGCGUGGCAAAGUGGCUGUGGCUAGUAUGCC [A12G A41U C42A] | 0.01
56 | GGCAGAGCUCAUUACAUCGUUGCAAAGUGGCUGUGGCUAGACUGCG [A12U C13U G17U G21U C46G] | 0.03
